{
  "source": "paper PMC6770308",
  "test_in_all_cases": "two-hybrid; OsCAF1 and its truncations in pGBKT7 (BD), OsCRS2 in pGADT7 (AD), co-transformed into yeast AH109; grown on SD-T/L at 28 °C, interaction read on SD/-Trp-Leu-His-Ade with dilution series",
  "key": {"[1]": {"target": "T1, OsCAF1-C2 (585-598) (rice) (UniProt Q5VMQ5)", "T1 sequence": "LFKQAIDSGMALVL"}, "[2]": {"target": "T2, OsCAF1 (full-length, BD-OsCAF1) (rice) (UniProt Q5VMQ5)", "T2 sequence": "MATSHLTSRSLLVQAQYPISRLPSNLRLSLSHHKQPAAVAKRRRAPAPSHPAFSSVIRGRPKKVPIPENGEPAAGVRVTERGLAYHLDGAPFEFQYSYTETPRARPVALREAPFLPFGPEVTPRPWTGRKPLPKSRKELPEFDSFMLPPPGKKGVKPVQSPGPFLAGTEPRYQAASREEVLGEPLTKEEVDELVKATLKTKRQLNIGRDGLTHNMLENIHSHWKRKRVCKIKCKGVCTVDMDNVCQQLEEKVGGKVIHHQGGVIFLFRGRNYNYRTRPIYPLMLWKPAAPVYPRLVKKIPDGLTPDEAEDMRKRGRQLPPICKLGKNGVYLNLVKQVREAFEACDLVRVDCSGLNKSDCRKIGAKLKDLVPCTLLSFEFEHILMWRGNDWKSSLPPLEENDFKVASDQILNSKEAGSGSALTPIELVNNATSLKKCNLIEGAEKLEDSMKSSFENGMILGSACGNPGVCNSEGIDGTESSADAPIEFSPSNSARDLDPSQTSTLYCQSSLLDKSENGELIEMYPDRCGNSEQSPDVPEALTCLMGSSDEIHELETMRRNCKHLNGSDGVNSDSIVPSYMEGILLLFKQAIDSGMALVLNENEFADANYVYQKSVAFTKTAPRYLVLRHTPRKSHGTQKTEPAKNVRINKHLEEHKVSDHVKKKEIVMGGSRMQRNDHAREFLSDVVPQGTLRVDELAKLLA"}, "[3]": {"target": "T3, OsCAF1-C4 (685-701) (rice) (UniProt Q5VMQ5)", "T3 sequence": "VVPQGTLRVDELAKLLA"}, "[4]": {"target": "T4, OsCAF1-C1 (387-584) (rice) (UniProt Q5VMQ5)", "T4 sequence": "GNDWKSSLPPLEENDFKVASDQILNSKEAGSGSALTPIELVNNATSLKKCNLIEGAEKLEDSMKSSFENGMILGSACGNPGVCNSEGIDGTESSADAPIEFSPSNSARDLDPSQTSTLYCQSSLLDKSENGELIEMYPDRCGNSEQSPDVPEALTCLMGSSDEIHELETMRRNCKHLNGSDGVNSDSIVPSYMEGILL"}, "OsCAF1-N (1-184) (rice)": {"target": "T5, OsCAF1-N (1-184) (rice) (UniProt Q5VMQ5)", "T5 sequence": "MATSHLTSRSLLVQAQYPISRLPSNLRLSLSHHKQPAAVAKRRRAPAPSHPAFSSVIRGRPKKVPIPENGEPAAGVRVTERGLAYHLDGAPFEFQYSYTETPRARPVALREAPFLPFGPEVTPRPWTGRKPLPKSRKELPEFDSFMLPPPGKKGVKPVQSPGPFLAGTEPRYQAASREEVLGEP"}, "[5]": {"target": "T6, OsCAF1-M (185-386) (rice) (UniProt Q5VMQ5)", "T6 sequence": "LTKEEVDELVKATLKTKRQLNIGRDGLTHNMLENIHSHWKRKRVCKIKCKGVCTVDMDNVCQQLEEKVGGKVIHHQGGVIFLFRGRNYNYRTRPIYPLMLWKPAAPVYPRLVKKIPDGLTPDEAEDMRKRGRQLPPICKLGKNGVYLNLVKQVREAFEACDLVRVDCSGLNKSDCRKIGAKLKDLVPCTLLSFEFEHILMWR"}, "[6]": {"target": "T7, OsCAF1-C (387-701) (rice) (UniProt Q5VMQ5)", "T7 sequence": "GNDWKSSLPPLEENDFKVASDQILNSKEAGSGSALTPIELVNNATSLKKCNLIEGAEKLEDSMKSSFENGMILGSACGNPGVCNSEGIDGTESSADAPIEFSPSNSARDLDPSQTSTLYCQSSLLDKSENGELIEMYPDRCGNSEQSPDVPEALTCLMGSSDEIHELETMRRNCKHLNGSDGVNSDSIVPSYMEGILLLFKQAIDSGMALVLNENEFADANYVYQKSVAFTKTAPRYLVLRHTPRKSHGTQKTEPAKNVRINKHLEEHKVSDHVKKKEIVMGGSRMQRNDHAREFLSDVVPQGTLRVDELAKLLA"}},
  "note": "Results are given in words; binding and its absence hold for the method and conditions named. Some binding calls cover weakened binding; strength is not graded here. Sequences can lack the tags named with a protein.",
  "data": [
    {"binder": "OsCRS2 (full-length, AD-OsCRS2) (protein, UniProt Q5ZCL8 1-259) MSLAVATPASARLSPLTTSSPEPCRRRRLLLSAAAPLRRTRLRRRIAVVASVPDPAARPAEYTPWLIAGLGNPGSKYHGTRHNVGFEMVDRIARDEGITMNTIQSKSLLGIGSIGEVPVLLVKPQSYINYSGEAIGPLAAYYQVPLRHILVMYDEMSLPNGVLRLQRKGGHGRHNGLQNVMECLDSSRELPRLSIGIGSPPGKMDTRAFLLQKFSSEERLQIDTALEQGVDAVRTLVLKGFSGSIERFNLVQKYKFHSV", "values": [
      {"measurement": "binding", "setting": "[1]", "result": "no binding"},
      {"measurement": "binding", "setting": "[2]", "result": "binds"},
      {"measurement": "binding", "setting": "[3]", "result": "no binding"},
      {"measurement": "binding", "setting": "[4]", "result": "binds"},
      {"measurement": "binding", "setting": "OsCAF1-N (1-184) (rice)", "result": "no binding"},
      {"measurement": "binding", "setting": "[5]", "result": "no binding"},
      {"measurement": "binding", "setting": "[6]", "result": "binds"}
    ]}
  ]
}
